Assay [1] has as its target T1, Arabidopsis Nuclear Factor Y subunit C4 (AtNF-YC4) (Arabidopsis thaliana) (UniProt Q9FMV5).
T1 sequence: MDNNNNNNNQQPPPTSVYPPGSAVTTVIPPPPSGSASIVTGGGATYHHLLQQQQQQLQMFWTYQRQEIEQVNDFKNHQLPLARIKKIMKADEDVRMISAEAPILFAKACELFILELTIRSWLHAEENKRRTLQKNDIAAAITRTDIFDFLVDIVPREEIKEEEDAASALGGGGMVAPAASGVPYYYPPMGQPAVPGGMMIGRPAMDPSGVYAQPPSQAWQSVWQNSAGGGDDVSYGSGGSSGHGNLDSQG
The experiment in a line: pull-down; MBP pull-down; MBP-NF-YC fragments as bait, QQS fragments as prey.

In assay [2] the target is T2, N-terminal fragment of human NF-YC, aa 1-145 (HsNF-YC-1-145) (human) (UniProt Q13952).
T2 sequence: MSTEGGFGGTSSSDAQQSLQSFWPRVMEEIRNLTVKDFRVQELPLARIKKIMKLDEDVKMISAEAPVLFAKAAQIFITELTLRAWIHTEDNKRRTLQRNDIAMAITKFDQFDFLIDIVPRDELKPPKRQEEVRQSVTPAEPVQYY
The assay is described as above.

In assay [3] the target is T3, QQS-1-12 (the 12 N-terminal aa of QQS) (Arabidopsis thaliana) (UniProt Q3E7K4).
T3 sequence: MKTNREQEIYVE
The experiment in a line: pull-down; reciprocal GST pull-down; GST-QQS fragments bound on beads as bait, NF-YC proteins as prey.

Assay [4] has as its target T4, QQS-11-59 (the 49 C-terminal aa of QQS) (Arabidopsis thaliana) (UniProt Q3E7K4).
T4 sequence: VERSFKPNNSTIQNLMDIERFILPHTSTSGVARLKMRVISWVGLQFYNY
Described as above.

Assay [5] addresses T5, QQS-41-59 (the 19 C-terminal aa of QQS) (Arabidopsis thaliana) (UniProt Q3E7K4).
T5 sequence: VARLKMRVISWVGLQFYNY
The assay is described as above.

These are yes or no findings as the source states them, for the method shown. Binding seen in cells or lysates may run through a third protein. Some binding calls cover weakened binding; strength is not graded here.

B1: QQS-41-59 (the 19 C-terminal aa of QQS) (domain or fragment, UniProt Q3E7K4 41-59)
chain: VARLKMRVISWVGLQFYNY
On to B1, for which the binding entry in assay [1] and in assay [2] was “binds” throughout.

B2: QQS-48-59 (the 12 C-terminal aa of QQS) (domain or fragment, UniProt Q3E7K4 48-59)
chain: VISWVGLQFYNY
With B2, the binding result in assay [1] was “no binding”.

B3: human NF-YC, full length (HsNF-YC) (protein, UniProt Q13952 1-458)
chain: MSTEGGFGGTSSSDAQQSLQSFWPRVMEEIRNLTVKDFRVQELPLARIKKIMKLDEDVKMISAEAPVLFAKAAQIFITELTLRAWIHTEDNKRRTLQRNDIAMAITKFDQFDFLIDIVPRDELKPPKRQEEVRQSVTPAEPVQYYFTLAQQPTAVQVQGQQQGQQTTSSTTTIQPGQIIIAQPQQGQTTPVTMQVGEGQQVQIVQAQPQGQAQQAQSGTGQTMQVMQQIITNTGEIQQIPVQLNAGQLQYIRLAQPVSGTQVVQGQIQTLATNAQQGQRNASQGKPRRCLKETLQITQTEVQQGQQQFSQFTDGQRNSVQQARVSELTGEAEPREVKATGNSTPCTSSLPTTHPPSHRAGASCVCCSQPQQSSTSPPPSDALQWVVVEVSGTPNQLETHRELHAPLPGMTSLSPLHPSQQLYQIQQVTMPAGQDLAQPMFIQSANQPSDGQAPQVTGD
Consider B3, for which the values for the binding entry in assay [3], in assay [4] and in assay [5] were “no binding”, “binds” and “binds”, respectively.

B4: QQS-13-47 (the middle 35 aa of QQS) (domain or fragment, UniProt Q3E7K4 13-47)
chain: RSFKPNNSTIQNLMDIERFILPHTSTSGVARLKMR
Take B4: in assay [1], the binding entry is reported as “no binding”.

B5: QQS-11-59 (the 49 C-terminal aa of QQS) (domain or fragment, UniProt Q3E7K4 11-59)
chain: VERSFKPNNSTIQNLMDIERFILPHTSTSGVARLKMRVISWVGLQFYNY
For the molecule B5, the binding entry in assay [1] and in assay [2] was “binds” in each case.

B6: Arabidopsis Nuclear Factor Y subunit C4 (AtNF-YC4) (protein, UniProt Q9FMV5 1-250)
chain: MDNNNNNNNQQPPPTSVYPPGSAVTTVIPPPPSGSASIVTGGGATYHHLLQQQQQQLQMFWTYQRQEIEQVNDFKNHQLPLARIKKIMKADEDVRMISAEAPILFAKACELFILELTIRSWLHAEENKRRTLQKNDIAAAITRTDIFDFLVDIVPREEIKEEEDAASALGGGGMVAPAASGVPYYYPPMGQPAVPGGMMIGRPAMDPSGVYAQPPSQAWQSVWQNSAGGGDDVSYGSGGSSGHGNLDSQG
Consider B6, for which the binding entry in assay [4] and in assay [5] was “binds” throughout.

B7: N-terminal fragment of human NF-YC, aa 1-145 (HsNF-YC-1-145) (domain or fragment, UniProt Q13952 1-145)
chain: MSTEGGFGGTSSSDAQQSLQSFWPRVMEEIRNLTVKDFRVQELPLARIKKIMKLDEDVKMISAEAPVLFAKAAQIFITELTLRAWIHTEDNKRRTLQRNDIAMAITKFDQFDFLIDIVPRDELKPPKRQEEVRQSVTPAEPVQYY
B7: the binding entry in assay [4] and in assay [5] was “binds” throughout.
